Reference: PubChem BioAssay AID179 (DTP/NCI, 2004)
Some entries of the source have several records that differ or are many. The list is limited to them. There may be further records. Values that stand side by side are repeats in other runs, samples, wells, individuals or studies. Records carry a tag for their origin. Letters count within one entry.

Tested on: CEM cells HIV-1 protection, formazan growth assay
Experiment: NCI AIDS Antiviral Assay
Settings: measured here: growth of uninfected CEM cells
Summary of the method: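 Soluble formazan readout of cell growth; CEM cells ± HIV-1; 5 drug concs. ≥50% protection → retest; ≥50% again = moderately active; reproducible 100% = confirmed active.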

SMILES	IC50
COc1cccc2c1C(=O)c1c(O)c3c(c(O)c1C2=O)C[C@@](O)(C(=O)CO)C[C@@H]3OC1CC(N)C(O)C(C)O1 (some centres not stated)	1.82 nM [sample A] and 63.1 nM [sample B]
Cc1cc(=O)c2c(O)c3c(O)cc(O)c4c5c(O)cc(O)c6c(O)c7c(=O)cc(C)c8c1c2c(c34)c(c65)c78	> 100 µM [sample A] and 2.95 µM [sample B]
